# Measurements: paper PMC4336329 (PLoS ONE, 2015)
# The whole screen tested about 310,000 compounds, of which about 2,200 (0.71%) showed an effect of 50% or more. The effect is printed as a negative number. The list shows a part of the results.
# Biological target: human ether-à-go-go-related gene (hERG) potassium channel (human, UniProt Q12809)
# Experiment: primary screen, population patch clamp on CHO cells stably expressing hERG
# human ether-à-go-go-related gene (hERG) potassium channel, sequence (Q12809 whole entry, looked up): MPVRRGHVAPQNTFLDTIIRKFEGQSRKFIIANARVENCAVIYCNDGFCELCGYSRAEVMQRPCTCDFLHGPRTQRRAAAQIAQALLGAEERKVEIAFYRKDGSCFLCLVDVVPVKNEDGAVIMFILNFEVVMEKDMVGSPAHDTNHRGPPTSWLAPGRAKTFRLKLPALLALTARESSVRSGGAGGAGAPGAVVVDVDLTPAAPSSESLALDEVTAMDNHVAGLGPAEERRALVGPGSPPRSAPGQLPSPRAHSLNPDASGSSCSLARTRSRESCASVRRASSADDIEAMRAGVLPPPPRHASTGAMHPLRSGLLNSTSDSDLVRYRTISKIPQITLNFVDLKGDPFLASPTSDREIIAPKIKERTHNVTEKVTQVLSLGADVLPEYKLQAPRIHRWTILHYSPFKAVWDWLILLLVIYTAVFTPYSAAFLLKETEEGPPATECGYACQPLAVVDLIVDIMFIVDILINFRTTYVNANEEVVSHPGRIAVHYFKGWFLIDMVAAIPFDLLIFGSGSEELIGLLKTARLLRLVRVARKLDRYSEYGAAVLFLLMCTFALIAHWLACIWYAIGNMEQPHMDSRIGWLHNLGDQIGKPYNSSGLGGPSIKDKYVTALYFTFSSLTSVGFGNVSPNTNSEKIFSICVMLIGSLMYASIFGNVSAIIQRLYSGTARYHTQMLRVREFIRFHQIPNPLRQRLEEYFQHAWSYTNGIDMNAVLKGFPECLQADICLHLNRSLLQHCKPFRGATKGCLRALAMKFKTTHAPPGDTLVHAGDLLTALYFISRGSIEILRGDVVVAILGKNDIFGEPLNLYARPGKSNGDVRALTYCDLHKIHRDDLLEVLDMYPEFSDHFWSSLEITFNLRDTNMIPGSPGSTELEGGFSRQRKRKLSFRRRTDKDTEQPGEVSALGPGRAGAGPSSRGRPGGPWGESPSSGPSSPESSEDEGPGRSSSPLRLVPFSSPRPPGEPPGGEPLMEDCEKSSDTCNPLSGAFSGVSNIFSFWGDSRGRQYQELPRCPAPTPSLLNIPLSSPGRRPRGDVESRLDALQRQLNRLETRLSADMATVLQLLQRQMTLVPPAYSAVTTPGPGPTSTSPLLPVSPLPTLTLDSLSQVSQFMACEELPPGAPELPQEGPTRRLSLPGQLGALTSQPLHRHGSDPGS
row,SMILES,"hERG current change (%, negative = inhibition) at 1uM [%]"
1,COc1ccc(C(=O)c2ccccc2)c2c(O)ccc(C(=O)c3ccccc3)c12,16.5
2,CC(=O)CCc1oc2ccc(C)cc2c1Cc1ccccc1,11.8
3,O=C(NO)c1ccc(OC(F)F)cc1,2.03
4,COCC(=O)NC1CC(C)(C)Cc2c1cnn2-c1ccc(F)cc1 (centres unmarked),-16.7
5,Cc1cc2ccccc2n2c(SCC(=O)NCC3CCCO3)nnc12 (centres unmarked),5.94
6,Clc1ccccc1/C=N/NC1=Nc2cccc3cccc1c23,23.9
7,Cc1ccsc1/C=N/Nc1nc(=O)[nH]nc1C,10.1
8,Cc1cccn2c(=O)c(C=Nc3ccccc3)c(NCc3ccco3)nc12,9.3
9,Cc1cc(OCC(=O)NCC2CCC(C(=O)O)CC2)c2c(C)c(C)c(=O)oc2c1 (centres unmarked),14.6
10,COc1ccc(NC(=O)CN2C(=O)NC(C)(C3CC3)C2=O)cc1S(=O)(=O)N1CCCCC1 (centres unmarked),8
11,O=C(O)c1ccn(COc2ccc(Br)cc2)n1,17.7
12,COc1ccc(C(=O)N2CCN(S(=O)(=O)N3CCOCC3)CC2)cc1OC,13.1
13,O=C(CCOc1ccc(F)cc1)Nc1nccs1,7.16
14,Cc1c(Cl)cccc1N=Cc1ccc([N+](=O)[O-])s1,9.36
15,Cc1ccc(NC(=O)CN(C)CC(=O)Nc2c(C)cccc2C)c(Br)c1,9.54
16,COc1cccc(CNS(=O)(=O)c2ccc3c(c2)NC(=O)CS3)c1,3.55
17,COc1ccc(S(=O)(=O)NCCc2nnc3ccc(SCc4cccnc4)nn23)cc1,4.46
18,CCOC(=O)c1[nH]c(C)c(C(=O)OCC(=O)N2c3ccccc3CC2C)c1C (centres unmarked),-1.32
19,C=CCC1=C/C(=C\c2c(N)n3nc(CC(=O)N4CCCC4)sc3nc2=O)C=C(OC)C1=O,14
20,CN(CCO)c1ccc([N+](=O)[O-])cc1C(=O)O,-5.43
21,Cc1ccc(C(=O)N2CCN(c3ccc(NC(=O)c4cc(C)cc(C)c4)cc3)CC2)cc1,7.12
22,Cc1ccc(CS(=O)(=O)Cc2ccc(C(=O)NCCc3ccccc3)o2)cc1,9.82

row,SMILES,"hERG current change (%, negative = inhibition) at 1uM [%]"
1,COc1nccnc1NS(=O)(=O)c1ccc(NC(=S)NC(=O)c2ccc(F)c(F)c2)cc1,2.42
2,COc1ccc(CCNC(=O)C2CCN(S(=O)(=O)c3ccc4nc5c(c(C(=O)O)c4c3)CCCC5)CC2)cc1OC,11.5
3,Cc1cccc(Nc2nnc(SCC(=O)Nc3ncc(C(F)(F)F)cc3Cl)s2)c1C,3.17
4,C=CCc1cc2c(oc(=O)c3ccccc32)c(C)c1O,7.3
5,CCC(C)NC(=O)CNC(=S)N(Cc1ccccc1)Cc1cccnc1 (centres unmarked),-5.2
6,NC(=O)c1ccsc1NC(=O)Cc1ccc([N+](=O)[O-])cc1,-0.898
7,CCOc1cc(/C=C2\SC(=Nc3ccc(F)cc3)N(c3ccc(F)cc3)C2=O)ccc1OCC(=O)O,-5.11
8,O=C(Nc1ccc(Oc2cccnc2)cc1)c1ccc([N+](=O)[O-])cc1,-2.91
9,O=C(CSc1ccc(-c2ccccn2)nn1)N1CCCC1,7.16
10,CN(C(=O)COC(=O)c1ccccc1NCc1ccco1)c1c(N)n(Cc2ccccc2)c(=O)[nH]c1=O,7.67
11,CC1CCC/C(=N\Nc2ccc(Cl)c(C(=O)O)c2)C1 (centres unmarked),6.37
12,CCN1C(=O)c2cccc3cccc1c23,8.91
13,Cc1ccc(-n2ncc(C(=O)N3CCN(C(=O)c4ccco4)CC3)c2C2CCN(C(=O)OC(C)(C)C)CC2)cc1C,11.2
14,CCOCCCNC(=O)C(NC(=O)CNC(=O)c1ccccc1)c1ccc(C)cc1 (centres unmarked),6.64
15,O=C(NC1CCCCC1)C(c1ccncc1)N(C(=O)c1csnn1)c1cccc(F)c1 (centres unmarked),-11.4
16,Cn1c(-c2ccccc2[N+](=O)[O-])[n+](C)c2ccccc21.[Cl-],12.9
17,COCCCN=C1NN=C(c2cc(C)n(Cc3ccco3)c2C)CS1.Cl,-10.2
18,CCCn1c(=N)c(S(=O)(=O)c2ccccc2)cc2c(=O)n3cccc(C)c3nc21,8.87
19,FC(F)(F)c1cccc(NC(=S)NCC(c2cccnc2)N2CCOCC2)c1 (centres unmarked),9.47
20,CCOc1ccc(NC(=O)c2cc(OC)nc3ccccc23)cc1,15.6
21,CCOC(=O)CC(NC(=O)c1ccc(C)cc1)c1ccc(C)cc1 (centres unmarked),7.81
22,O=C(O)CCCSCC(=O)Nc1ccccc1,11.8

row,SMILES,"hERG current change (%, negative = inhibition) at 1uM [%]"
1,Cc1ccccc1Nc1nc(N)nc(COC(=O)c2cccc(S(=O)(=O)N(C)C)c2)n1,8.43
2,CC(=O)/C(=N/Nc1cccc(Cl)c1)Sc1nnc(C(O)c2ccccc2)n1-c1ccccc1 (centres unmarked),9.37
3,COc1cccc(Cc2n[nH]c(=S)n2Cc2ccco2)c1,12.1
4,COCCCNC(=O)/C=C1\Sc2ccccc2N(Cc2ccccc2F)C1=O,11.8
5,Cc1c(NC(=O)CSc2nnc(Nc3ccccc3)s2)c(=O)n(-c2ccccc2)n1C,-26
6,O=C(NN1C(=O)/C(=C\c2cccnc2)SC1=S)C(c1ccccc1)c1ccccc1,-0.137
7,O=C(NCCCN1CCCC1)Nc1ccccc1[N+](=O)[O-],14.8
8,CC(C)(C)n1ncc2c(=O)n(CC(=O)NC3CCCCC3)cnc21,10.3
9,CC(C)NC(=O)C(=O)NCc1ccccn1,9.57
10,COc1ccccc1C1N(c2cc(Cl)ccc2OC)C(=O)C2CCCN21 (centres unmarked),7.88
11,COc1cc(-c2noc(-c3ccccc3C(=O)NCc3ccco3)n2)cc(OC)c1OC,11.7
12,C/C(=N/NC(=O)c1nnn(-c2nonc2N)c1-c1ccccc1)c1ccncc1,14.6
13,CCOc1ncccc1C(=O)OCc1ccc([N+](=O)[O-])cc1,-8.48
14,Cc1ccc(C)n1-c1ccsc1C(=O)CC#N,7.66
15,Cc1ccc2nc(N3CCN(Cc4ccc(F)cc4)C3=O)c(C)cc2c1,3.51
16,COc1ccccc1NC(=O)CSc1nnnn1C1CCCCC1,-1.21
17,Cc1cccc(NCN2C(=O)c3ccncc3C2=O)n1,12.7
18,O=C(NCCc1c[nH]c2ccccc12)C1CCN(S(=O)(=O)c2ccc(F)cc2)CC1,2.23
19,C#CCOCCOCCOCCNc1nc(N2CCN(C(=O)[C@H]([C@@H](C)O)n3cc(CCCC[NH3+])nn3)CC2)nc(N2CCN(C(=O)[C@H](Cc3ccc(O)cc3)n3cc(CCO)nn3)CC2)n1.[Cl-],6.21
20,CC(=O)n1c2c(c3ccccc31)OC(N)=C(C#N)C2c1cccc(Cl)c1Cl.CCO (centres unmarked),13.3
21,COc1ccc(C2NC(C(=O)O)Cc3c2[nH]c2ccccc32)cc1OC (centres unmarked),15.6
22,COc1ccc(/C=N/Nc2cc(N3CCOCC3)nc(C)n2)c(OC)c1,3.54

row,SMILES,"hERG current change (%, negative = inhibition) at 1uM [%]"
1,O=C(NCc1ccc(F)cc1F)c1cc(COc2c(F)cccc2F)on1,1.42
2,CCOC(=O)C1CN(S(=O)(=O)c2ccc(OC)cc2)c2cc(CC(=O)OC)ccc2O1 (centres unmarked),4.4
3,CCOC(=O)C(/C(C)=N/NC(=O)C1CC1c1ccccc1)C(C)C (centres unmarked),2.75
4,CCOc1cc(/C=C2/N=C(c3ccc(C(C)(C)C)cc3)OC2=O)cc(Cl)c1OS(C)(=O)=O,4.17
5,Nn1cnc2cc3ccccc3cc2c1=O,17.6
6,COc1ccccc1C(=O)NC(=O)COC(=O)c1ccc(C)o1,6.76
7,O=C(Nc1ccc(F)cc1)Oc1ccc[nH]c1=O,8.25
8,Cc1nc2ccccc2c(=O)n1NC(=O)c1cc(Br)ccc1Cl,2.82
9,COc1ccccc1NC(=O)NNC(=O)c1cc2ccccc2cc1O,5.86
10,O=C(Cc1c(C(=O)O)[nH]c2ccccc12)Nc1ccc2c(c1)OCO2,8.25
11,Cn1c(=NC(=O)COc2ccccc2)sc2cccc(F)c21,4.19
12,CCCCCSc1nnc2c(n1)OC(C)N(C(C)=O)c1ccccc1-2 (centres unmarked),2.01
13,CCOC(=O)c1ccc(NC(=O)c2ccccc2C)cc1,2.66
14,CC1CN(C(=O)Nc2ccc3c(c2)OCO3)CC(C)O1 (centres unmarked),5.9
15,CCN(CC)S(=O)(=O)c1ccc2[nH]c(=O)[nH]c2c1,-18.2
16,CCOc1ccc(NC(=O)C2=C(C)C(=O)OC23CCC(C)CC3)cc1 (centres unmarked),9.2
17,CS(=O)(=O)N1CCCC(C(=O)N2CCOCC2)C1 (centres unmarked),11.8
18,Cc1ccc(C)c(NC(=O)CN(C)S(=O)(=O)c2cccc3cccnc23)c1,2.6
19,O=C(CSc1nnc(-c2ccc(O)cc2)o1)Nc1ccccc1Br,18.5
20,CCOc1ccc(NC(=O)C2CCCN(S(C)(=O)=O)C2)cc1 (centres unmarked),13.5
